The whole screen tested about 310,000 compounds, of which about 2,200 (0.71%) showed an effect of 50% or more. Effects have a minus sign here. The list shows a part of the results.
Target: human ether-à-go-go-related gene (hERG) potassium channel (human, UniProt Q12809)
Assay: primary screen, population patch clamp on CHO cells stably expressing hERG

Sequence of human ether-à-go-go-related gene (hERG) potassium channel (Q12809 whole entry, looked up): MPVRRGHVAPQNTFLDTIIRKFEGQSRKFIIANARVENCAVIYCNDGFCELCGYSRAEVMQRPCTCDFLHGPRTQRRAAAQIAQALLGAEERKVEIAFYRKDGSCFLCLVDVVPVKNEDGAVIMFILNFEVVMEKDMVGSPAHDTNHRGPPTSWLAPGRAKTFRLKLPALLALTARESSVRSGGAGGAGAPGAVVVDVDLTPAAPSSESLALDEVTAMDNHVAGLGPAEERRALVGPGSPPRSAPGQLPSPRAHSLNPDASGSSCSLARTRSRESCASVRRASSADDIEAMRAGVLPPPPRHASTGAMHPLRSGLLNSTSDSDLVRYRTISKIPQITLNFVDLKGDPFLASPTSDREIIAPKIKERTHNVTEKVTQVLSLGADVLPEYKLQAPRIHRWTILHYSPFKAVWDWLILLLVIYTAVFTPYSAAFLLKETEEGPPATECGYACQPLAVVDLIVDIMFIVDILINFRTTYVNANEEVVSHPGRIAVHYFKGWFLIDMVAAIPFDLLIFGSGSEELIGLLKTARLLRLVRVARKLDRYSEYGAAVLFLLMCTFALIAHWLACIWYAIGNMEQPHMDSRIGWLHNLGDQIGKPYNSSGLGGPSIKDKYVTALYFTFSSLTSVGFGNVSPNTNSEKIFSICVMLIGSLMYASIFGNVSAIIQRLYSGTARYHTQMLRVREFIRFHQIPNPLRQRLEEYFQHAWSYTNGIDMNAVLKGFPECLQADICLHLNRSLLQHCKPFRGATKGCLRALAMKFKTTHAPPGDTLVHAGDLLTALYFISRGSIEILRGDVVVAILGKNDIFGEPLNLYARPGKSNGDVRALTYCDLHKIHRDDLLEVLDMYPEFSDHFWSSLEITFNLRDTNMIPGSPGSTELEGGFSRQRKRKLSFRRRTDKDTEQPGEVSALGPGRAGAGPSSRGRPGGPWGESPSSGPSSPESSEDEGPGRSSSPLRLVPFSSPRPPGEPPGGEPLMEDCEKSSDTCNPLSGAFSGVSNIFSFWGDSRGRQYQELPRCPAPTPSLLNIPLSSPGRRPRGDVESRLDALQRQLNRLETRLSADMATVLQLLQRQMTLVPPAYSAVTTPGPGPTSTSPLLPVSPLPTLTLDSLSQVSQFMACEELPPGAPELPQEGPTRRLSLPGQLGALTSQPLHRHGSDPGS

Row | Structure (SMILES) | hERG current change (%, negative = inhibition) at 1uM
1 | COc1ccccc1-c1cc(C(=O)Nc2cccnc2)no1 | -3.46%
2 | Cc1ccc2c(C(=O)CN3CCC4(CC3)OCCO4)c(C)[nH]c2c1 | 5.43%
3 | S=c1[nH]nc(-c2cccc(Cl)c2)n1CCN1CCCCC1 | 8.03%
4 | Cc1ccc(NP(=O)(Oc2ccccc2F)Oc2ccccc2F)cc1 | -1.69%
5 | O=[N+]([O-])c1ccc(N2CCN(C(=S)NC3CCCCC3)CC2)cc1 | -33.9%
6 | O=C(N/N=C/c1ccc(OCC2COCCO2)cc1)c1ccc(Br)cc1 (centres unmarked) | 8.38%
7 | COc1ccc(-n2c(=O)c3ccccc3n(CC(=O)OCc3ccccc3)c2=O)cc1OC | 3.52%
8 | CNC(=S)Nc1cccc(-c2cnc3ccccc3n2)c1 | 3.1%
9 | S=C(NCCN1CCOCC1)Nc1ccc(Nc2ccccc2)cc1 | 5.73%
10 | Cc1cccc(NC(=S)NC(=O)/C=C/c2ccccc2)n1 | 15.1%
11 | CCOC(=O)Nc1ccc2c(CN3CCC(C(=O)OC)CC3)cc(=O)oc2c1 | 15.1%
12 | COc1ccc(NC(=O)Cn2nnc(-c3ccccc3F)n2)cc1 | 8.09%
13 | COc1ccc(CCNC(=O)COc2ccc(S(=O)(=O)NC(C)C)cc2)cc1OC | 9.7%
14 | CC(C)[C@H](NC(=O)N1CC(=O)Nc2ccccc21)C(=O)N[C@@H](Cc1ccccc1)C(=O)O | 9.61%
15 | COC(=O)CN1C(=O)[C@H]2[C@@H](c3ccc(C)o3)N3C(=O)CN(CCO)C(=O)[C@@]3(Cc3ccccc3)[C@H]2C1=O | 1.88%
16 | C(=N\Nc1ccccn1)/c1ccc2c(c1)OCCO2 | 10.2%
17 | Fc1cccc(Cl)c1CSc1ccc(-c2ccco2)nn1 | 6.26%
18 | O=C(CSc1nc2ccccc2s1)Nc1ncccn1 | 19.2%
19 | O=C(Nc1ccc2[nH]ncc2c1)c1ccc(F)cc1 | 15.2%
20 | O=C(Cn1ccc([N+](=O)[O-])n1)NCc1nc2ccccc2[nH]1 | 9.95%
21 | O=C(NCCc1ccccc1)c1nccc2ccccc12 | 4.55%
22 | COc1cc(Cl)c(C)cc1NC(=O)Cc1ccc(OC)c(OC)c1 | 7.76%

Row | Structure (SMILES) | hERG current change (%, negative = inhibition) at 1uM
23 | O=C(NCCCN1CCOCC1)C(=O)N/N=C/c1ccccc1Cl | 10.5%
24 | CC(=O)N/C(=C\c1ccc(F)cc1)C(=O)OCc1ccccc1 | -8.34%
25 | O=C(O)c1cccc(NS(=O)(=O)c2ccc(-c3ccc(S(=O)(=O)Nc4cccc(C(=O)O)c4)cc3)cc2)c1 | 15.4%
26 | CN(CC(=O)Nc1ccc(Cl)c(C(F)(F)F)c1)C(=O)CCN1C(=O)C2CCCCC2C1=O (centres unmarked) | -8.71%
27 | Cc1ccc(Cn2c(=O)c3ccccc3n3c(CCC(=O)O)nnc23)cc1 | 9.33%
28 | COc1ccc(S(=O)(=O)N(C)c2ccc(C(=O)NCc3ccco3)cc2)cc1OC | 0.0226%
29 | Cc1ccc(OCC(=O)NC2CCS(=O)(=O)C2)c(C)c1 (centres unmarked) | 10.3%
30 | CN1CCS/C1=C/C=C1/SC(=S)N(Cc2ccccc2)C1=O | 6.26%
31 | Cc1ccc(N(CC(=O)NN=C2CCN(C)CC2)S(=O)(=O)c2ccc(C)cc2)cc1 | 8.98%
32 | CC(=O)Nc1cccc(C(=O)OC(C)C(=O)NC(=O)NC2CCCCC2)c1 (centres unmarked) | 5.18%
33 | COc1ccccc1-c1ccc(SCC(=O)N2CCOCC2)nn1 | 5.03%
34 | Cc1sc(NC(=O)C2=COCCO2)c(C(N)=O)c1C | 10.4%
35 | CCC(=O)C1CCCN(C(=O)c2ccc3nc(-c4cccc(OC)c4)oc3c2)C1 (centres unmarked) | -3.75%
36 | COc1ccc(C2CC2/C(=N/O)c2ccccc2)cc1 (centres unmarked) | 14.2%
37 | Cc1c(NC(=O)C2CCCN2S(=O)(=O)c2cccc3nsnc23)cccc1C(=O)O (centres unmarked) | 10.5%
38 | Nc1ccccc1-c1nc2ccccc2s1 | 6.32%
39 | Cc1ccnc2nc(C(=O)Nc3nc4ccccc4s3)nn12 | 3.78%
40 | COc1ccc(/C=C2\SC(=S)N(N3CCOCC3)C2=O)c(OC)c1 | 10.2%
41 | O=C(c1ccccc1)C1CCN(C(=O)c2ccco2)CC1 | 7.07%
42 | CC(=O)Nc1ccc(/C=N/NC(=O)c2cc(-c3ccco3)nc3ccccc23)cc1 | 12.6%
43 | Cc1cc(OCC(=O)O/N=C(\N)c2ccccc2)cc(C)c1Cl | -0.13%
44 | Cl.O=C(CCN1CCc2ccccc21)c1ccc2c(c1)OCCO2 | 9.89%

Source: paper PMC4336329 (PLoS ONE, 2015)
